Laboratory results from publication PMC7819943, “Rice protein-binding microarrays: a tool to detect cis-acting elements near promoter regions in rice”.
The list shows a part of the results.

These sequences were tested against T1, OsWOX13 (Oryza sativa, UniProt Q5QMM3 1-267) (assay: protein-binding microarray (RPBM); PBS, 2% BSA, 51.3 ng/ul salmon testes DNA, 50 uM zinc acetate, 200 nM TF, 25 C, 1 h; high values mean tight binding). Details: protein: recombinant; tags: N-terminal polyhistidine and DsRed monomer fusion (pET32a); label: CyDye5-dUTP incorporated in the synthesized complementary strand; 3' TTTTT single-stranded linker to array surface; dsDNA, one strand shown.
T1 sequence: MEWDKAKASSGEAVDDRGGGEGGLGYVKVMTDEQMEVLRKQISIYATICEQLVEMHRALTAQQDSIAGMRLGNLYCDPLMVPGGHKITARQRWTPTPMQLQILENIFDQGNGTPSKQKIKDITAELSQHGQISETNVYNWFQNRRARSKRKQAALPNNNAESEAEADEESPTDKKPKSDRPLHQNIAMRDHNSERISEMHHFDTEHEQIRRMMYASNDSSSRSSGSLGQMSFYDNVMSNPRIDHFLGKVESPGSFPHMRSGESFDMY
Method in brief: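 In PBS with 2% BSA, salmon testes DNA and 50 µM zinc acetate, 200 nM protein was incubated on a custom Agilent array at 25 °C for 1 h and then washed off. The array had been made double-stranded by primer extension with Cy5-dUTP and blocked with 2% BSA. The proteins were transcription factors fused N-terminally to polyhistidine and DsRed, expressed in E. coli BL21-CodonPlus and purified on Ni–NTA. The binding signal is per-feature fluorescence intensity (arbitrary units) from an Axon 4000B scanner.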
In the case of “GCTAATCATAGACTAATTATACTCAAAAGATTCGTCATTCCGGAGTCACCTAGTGCAG”, the binding signal is reported as 32500 fluorescence intensity (a.u.).
For “TTTTAATTATAATGTCACGTAAGCGGCACGTGGAATGAAACGGAGTCACCTAGTGCAG”, the binding signal was 18500 fluorescence intensity (a.u.).
“CTATGCTTATTAATTGGGAGGGCCACTGGGGAAAATGGCTCGGAGTCACCTAGTGCAG” was tested, and the binding signal was 10700 fluorescence intensity (a.u.).
With “ACACTGACTGATTTACCCTTGATCATACTACTAGTACATTCGGAGTCACCTAGTGCAG” the binding signal was 39100 fluorescence intensity (a.u.).
In the case of “GATGTTTGAACACTAATTTAGAGTATTAAACATAGACTAGCGGAGTCACCTAGTGCAG”, the binding signal is reported as 4030 fluorescence intensity (a.u.).
In the case of “TGAAACTTGTAATTATCAATGGGGACCACCTATACATTTGCGGAGTCACCTAGTGCAG”, the binding signal is reported as 12300 fluorescence intensity (a.u.).
For “ATATAATTTAACGAGGTTATGCGCCGTGGTACAAGATCCTCGGAGTCACCTAGTGCAG”, the binding signal was 19600 fluorescence intensity (a.u.).
“TAGCTAATTTGGGTGTTGGTGCCTGGCTAGAAGGAGCTACCGGAGTCACCTAGTGCAG” was tested, and the binding signal was 4480 fluorescence intensity (a.u.).
“GTCATAAATTGATCCATACATATCATAGTAAAGCGTGGGTCGGAGTCACCTAGTGCAG” was tested, and the binding signal was 33400 fluorescence intensity (a.u.).
With “GCTGGAGATTGGACCACCATTAACATCTCTTCGCTGCCATCGGAGTCACCTAGTGCAG” the binding signal was 7680 fluorescence intensity (a.u.).
In the case of “ACCTCACTGTCAATCGATATGGATTTGTATGATTTTCTATCGGAGTCACCTAGTGCAG”, the binding signal is reported as 7670 fluorescence intensity (a.u.).
“ACTTAACTATTATTATCAATCCTCCCTGCTAAAATGTATACGGAGTCACCTAGTGCAG” was tested, and the binding signal was 12200 fluorescence intensity (a.u.).
For “ATTGCGTGCTTGATTAATTAGTTTCTACCAACAATTTCTCCGGAGTCACCTAGTGCAG”, the binding signal was 8110 fluorescence intensity (a.u.).
In the case of “GTAATCTAGATTATATAACTAGATTACTATAAGCTGGATTCGGAGTCACCTAGTGCAG”, the binding signal is reported as 6560 fluorescence intensity (a.u.).
With “GTTTTGATAAATTGATTTAAAACGCTTTATAAGAAGTGTCCGGAGTCACCTAGTGCAG” the binding signal was 43800 fluorescence intensity (a.u.).
“ATAGATTTAATGAAAACTAATTTGATGTTTAAATGTTGTGCGGAGTCACCTAGTGCAG” was tested, and the binding signal was 43800 fluorescence intensity (a.u.).
With “TGTACACATTAAACACTCAATCATCCAGCTTCAGCTGGGTCGGAGTCACCTAGTGCAG” the binding signal was 6330 fluorescence intensity (a.u.).
With “ACTTAATTGGATAGATAAATTTAAGTTATATTTAATATGGCGGAGTCACCTAGTGCAG” the binding signal was 64900 fluorescence intensity (a.u.).
“TAGAATTACAATTATTTTATGATGGAGGTAGTATTTGCTCCGGAGTCACCTAGTGCAG” was tested, and the binding signal was 6030 fluorescence intensity (a.u.).
“AAAAGATTTGTCTCGTAAATTAGTCGCAATCTACACAATTCGGAGTCACCTAGTGCAG” was tested, and the binding signal was 9060 fluorescence intensity (a.u.).
“AAAATTATATATAATATATATACAATACTTGGGCCAAAATCGGAGTCACCTAGTGCAG” was tested, and the binding signal was 3300 fluorescence intensity (a.u.).
“CTCCAAATTAATTTCACTTATCTAGATGTAAACAATTGATCGGAGTCACCTAGTGCAG” was tested, and the binding signal was 12100 fluorescence intensity (a.u.).
“TACAAATAGACTTGAATAAATGTTTATCTATTTTGTGTTGCGGAGTCACCTAGTGCAG” was tested, and the binding signal was 16800 fluorescence intensity (a.u.).
With “CTAAACTAACTGAGTGCTCCCTTAAATCTATCTAGAGTCACGGAGTCACCTAGTGCAG” the binding signal was 7380 fluorescence intensity (a.u.).
With “ATAATTAGTACCTTATAATAAGTAGCACAATCTTCGTGTTCGGAGTCACCTAGTGCAG” the binding signal was 7900 fluorescence intensity (a.u.).
“ATTACAATAGCTTGATTAGGGGAAACTAGAGAGCTCTCCCCGGAGTCACCTAGTGCAG” was tested, and the binding signal was 9280 fluorescence intensity (a.u.).
With “TTACATAATTATCATTTATTATATTTTAACTTAATTTATCCGGAGTCACCTAGTGCAG” the binding signal was 19500 fluorescence intensity (a.u.).
With “ACACAAAACAAATACTTAATTAAATCATTGTTGTTTACTTCGGAGTCACCTAGTGCAG” the binding signal was 5150 fluorescence intensity (a.u.).
In the case of “GTTTATAATTTGAGTAGACACATCCCATGTAGCATTTTGACGGAGTCACCTAGTGCAG”, the binding signal is reported as 7120 fluorescence intensity (a.u.).
With “ACATATAAATTGGATGGCCACCCTCTTCTTCTTCCTAGTCCGGAGTCACCTAGTGCAG” the binding signal was 26800 fluorescence intensity (a.u.).
With “GTCCTAATAAATGATTATGACTACTTCATTAGTACTCCAGCGGAGTCACCTAGTGCAG” the binding signal was 23300 fluorescence intensity (a.u.).
For “CCGTTACAATTTATACTTATCAATTTAGAGGTTTGTTCTACGGAGTCACCTAGTGCAG”, the binding signal was 6390 fluorescence intensity (a.u.).
“GTGCGTCGATTTATATTAATTAAGAAGTAAGTCATGGCAGCGGAGTCACCTAGTGCAG” was tested, and the binding signal was 4170 fluorescence intensity (a.u.).
For “TTCGAGATTGAATTTAGAGTGCAAAGTATTGTAGGTCTGTCGGAGTCACCTAGTGCAG”, the binding signal was 22000 fluorescence intensity (a.u.).
For “GTTAAATAAATCAAATTAAAACACCAGACCTCCAAACTAGCGGAGTCACCTAGTGCAG”, the binding signal was 3560 fluorescence intensity (a.u.).
For “GGCTTAATTAGGTGGAGATTGGAGATCAATAAGTGGAATTCGGAGTCACCTAGTGCAG”, the binding signal was 44000 fluorescence intensity (a.u.).
With “GCTGATTATTAATCCTATGAATTTCCTAGCTTAGCTGATCCGGAGTCACCTAGTGCAG” the binding signal was 49800 fluorescence intensity (a.u.).
For “GGAATATCCAAGCTTAATTGCCAGCATAATAGACTAGCATCGGAGTCACCTAGTGCAG”, the binding signal was 7810 fluorescence intensity (a.u.).
“GTTATCAGGATTGAGCACCAGATTGATGGTATGTGATGATCGGAGTCACCTAGTGCAG” was tested, and the binding signal was 25800 fluorescence intensity (a.u.).
In the case of “TTTAGATTGCTAAACACACATGTATATATAAGTTTTATTTCGGAGTCACCTAGTGCAG”, the binding signal is reported as 5900 fluorescence intensity (a.u.).
“AAATTAACAGGTTTGTTCAACGGTTCAACCAACATCTGCCCGGAGTCACCTAGTGCAG” was tested, and the binding signal was 11000 fluorescence intensity (a.u.).
In the case of “AGCTCCTAATTTCATTCTTACCCTGAAAGTAATCTAGCTCCGGAGTCACCTAGTGCAG”, the binding signal is reported as 3750 fluorescence intensity (a.u.).
